In PubChem BioAssay (NCATS):
Inconclusive means that the source gave no clear call. Such entries were picked first, then a sample of the others. For part of these data: No potency is given beside an inconclusive call; the fits are too rough. The source made the active and inactive calls. Calls come from the whole dose curve; as a rule, active = well fitted curve in the direction sought with a large enough effect; inconclusive = small, poorly fitted or top-dose-only effect, or another doubt; inactive = no such curve, though single readings can be large; an effect the other way counts as inactive or inconclusive.

Key:
Furin (Homo sapiens) = Furin (Homo sapiens) (UniProt P09958); experiment: Furin counterscreen qHTS for Zika virus inhibitors (AID 1347149); conditions: furin enzymatic counterscreen, fluorogenic substrate; activity change, negative = inhibition: at 57.5 µM (top of the series); note: potency is the fitted concentration of half-maximal effect; nearly all actives have a fitted effect of over 70% in size
Outline: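 Fluorogenic cleavage of BOC-RVRR-AMC (2 microM final, Km ~15 µM) was monitored (ex 340, em 450 nm) at 37C after 15 min RT preincubation of 5 nM furin with compounds in HEPES pH 7.0 buffer with CaCl2 and Triton X-100. Percent inhibition was fitted to a 4-parameter Hill curve.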

[1] = test system: Zika virus NS2B-NS3 protease (linked construct); experiment: Confirmatory screen NINDS AMC qHTS for Zika virus inhibitors (AID 1347152); note: potency is the fitted concentration of half-maximal effect; nearly all actives have a fitted effect of over 70% in size
Outline: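 Linked NS2B-NS3 1 nM, Tris pH 8.0/0.01% Tween 20; cpd 15 min RT dark; + Nle-KRR-AMC 10 µM (Km 18.3 µM); read 0 and 15 min, 340/450 nm; %inh vs controls, 4-param Hill.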

[2] = test system: Zika virus NS2B-NS3 protease (unlinked complex); experiment: Confirmatory screen GU AMC qHTS for Zika virus inhibitors (AID 1347153);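 note: enzyme at 25 nM with substrate at 10 µM below its Km of 18.3 µM; potency is the fitted concentration of half-maximal effect; nearly all actives have a fitted effect of over 70% in size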
Outline: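 Fluorescence change (ex 340/em 450 nm) over 15 min, ~20% substrate conversion, normalized to no-inhibitor and no-enzyme controls, then Hill-fitted. Unlinked protease at 25 nM; AMC peptide 10 µM.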

[3] = test system: Zika virus NS2B-NS3 protease (unlinked complex); experiment: Primary screen GU Rhodamine qHTS for Zika virus inhibitors: Unlinked NS2B-NS3 protease assay (AID 1347159); note: potency is the fitted concentration of half-maximal effect; nearly all actives have a fitted effect of over 60% in size
Outline: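 A qHTS format was used, with compound concentrations ranging up to 114 microM. Each compound was preincubated with 25 nM NS2B-NS3 protease, and the substrate was then added at 1.5 microM. Curves were fitted with a 4-parameter Hill model.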

[4] = test system: Zika virus NS2B-NS3 protease (linked construct); experiment: Primary screen NINDS Rhodamine qHTS for Zika virus inhibitors (AID 1347160); conditions: activity change, negative = inhibition: at 57.1 µM (top of the series) unless noted; note: potency is the fitted concentration of half-maximal effect; nearly all actives have a fitted effect of over 55% in size
Outline: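 Kinetic fluorescence (Ex 480 nm, Em 540 nm) over 15 min with 1.5 microM Rhodamine110 peptide and 25 nM linked protease.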

[5] = Tertiary RLuc qRT-PCR qHTS assay for Zika virus inhibitors (AID 1347169); note: potency is the fitted concentration of half-maximal effect; nearly all actives have a fitted effect of over 55% in size
Outline: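 Luminescence read-out: live-cell Renilla luciferase substrate applied to infected Vero cells, signal measured after 1-1.5 hrs. Cells had received compound before ZIKV-RLuc (Cambodian strain, MOI 1-2) infection and were incubated 48-72 hrs at 37 degrees C.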

[6] = Primary fluorescence-based thiol-reactive (MSTI) qHTS assay for identification of artifact compounds. (AID 1845221);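 note: potency is the fitted concentration of half-maximal effect; thiol-reactive compounds lower the probe fluorescence signal; nearly all actives have a fitted effect of over 65% in size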
Outline: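 In PBS pH 7.4 with 2% DMSO, each compound met 4 uM MSTI for one hour at ambient temperature, shielded from light, before fluorescence detection.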

[7] = Primary redox qHTS assay for identification of artifact compounds. (AID 1845223); conditions: Amplex Red/HRP redox cycling with DTT, fluorescence; redox activity (% of DA3003): at 53.8 µM (top of the series); note: potency is the fitted concentration of half-maximal effect
Outline: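 Amplex Red (25 uM) and HRP (250 mU/mL) in HBSS, with compounds for 15 min, then 250 uM DTT for 30 min, room temperature, dark. Fluorescence 525/598 nm read; normalized to DMSO and 10 uM DA3003; Hill fit.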

CRL-7250 = normal cell line; experiment: Cytotoxic Profiling of Annotated Libraries Using Quantitative High-Throughput Screening (AID 1296008); conditions: Five cell lines viability, CellTiter-Glo ATP luminescence, 48-72 h; max response: active compounds read low; note: % is set by controls: 0 for no effect and ±100 for the full control effect; nearly all actives have a fitted effect of over 60% in size
Outline: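 Compounds were pin-transferred onto cells and incubated 48 or 72 hr at 37 degree Celsius, 95% humidity. CellTiter-Glo was added, plates sat 10 min at room temperature, then ATP-coupled luminescence was imaged as the viability read-out.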
Tags give direction and shape of the fitted curve.

Sequence of UniProt P09958 (P09958 whole entry, looked up): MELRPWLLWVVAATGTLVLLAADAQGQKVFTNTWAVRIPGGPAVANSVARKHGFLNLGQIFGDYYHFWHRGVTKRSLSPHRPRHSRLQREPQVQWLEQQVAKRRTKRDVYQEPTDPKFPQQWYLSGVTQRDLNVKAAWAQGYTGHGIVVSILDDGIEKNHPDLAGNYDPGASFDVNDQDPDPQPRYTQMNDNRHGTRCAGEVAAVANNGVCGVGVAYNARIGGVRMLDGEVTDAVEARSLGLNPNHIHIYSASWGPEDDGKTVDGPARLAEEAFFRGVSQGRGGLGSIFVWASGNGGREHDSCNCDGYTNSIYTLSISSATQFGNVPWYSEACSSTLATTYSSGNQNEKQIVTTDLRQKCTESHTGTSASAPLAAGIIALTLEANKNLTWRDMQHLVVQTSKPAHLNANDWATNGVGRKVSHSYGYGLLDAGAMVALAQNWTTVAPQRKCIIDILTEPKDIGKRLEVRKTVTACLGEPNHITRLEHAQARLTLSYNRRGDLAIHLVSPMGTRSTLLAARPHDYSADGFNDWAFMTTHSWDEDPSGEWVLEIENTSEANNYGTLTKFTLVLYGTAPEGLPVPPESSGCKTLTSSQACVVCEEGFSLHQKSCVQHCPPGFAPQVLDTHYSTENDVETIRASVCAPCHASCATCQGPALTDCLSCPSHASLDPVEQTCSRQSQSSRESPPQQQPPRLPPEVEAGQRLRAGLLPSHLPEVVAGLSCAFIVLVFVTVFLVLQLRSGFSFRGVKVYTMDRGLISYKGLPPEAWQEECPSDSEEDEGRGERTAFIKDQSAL

For `C/C(=C\CCC(C)CCO)C(=O)OC[C@H]1O[C@@H](O[C@@H]2OC=C(C(=O)O)[C@H]3CC[C@](C)(O)[C@@H]23)C(O)[C@@H](O)C1O` (some centres undefined), the Potency (Furin (Homo sapiens)) was inconclusive [inhibitor, partial curve], the Potency [1] was active: 13.6 µM and the Potency [2] was inconclusive [inhibitor, full curve]. For the same compound, the Potency [3] was active: 7.94 µM, the Potency [4] was active: 5.62 µM and the Potency [5] was inconclusive [inhibitor, full curve, poor fit]. The Potency [6] was active: 2.32 µM, the Potency [7] was inconclusive [activator, partial curve, poor fit] and the max response (CRL-7250) was inactive: 3.02%.
